# Test results published in article PMC10668032.
# This is one part of the list. At the low end of the ranking the order means little.
# Biological target: SIX1 homeodomain (reference allele) (UniProt Q15475)
# Assay: universal protein binding microarray
# Details: Universal all-10-mer PBM (8x60K, AMADID 030236), 300 nM GST-tagged protein, Alexa Fluor 488 anti-GST; buffer, salt, pH and temperature not stated; high values mean tight binding; most listed sequences are background and not binding sites; double strand, one strand shown
row,Sequence,binding signal [E-score]
1,AAGCAATA,0.141
2,CAAGCCTA,-0.195
3,GAATTTCA,-0.267
4,CTGCGGCC,-0.0392
5,AGGCAGTA,-0.172
6,AAGTACGT,-0.00652
7,ACGTCTAC,-0.16
8,CCGACGGA,-0.0714
9,TTCAACAA,-0.0609
10,GGATAGAA,0.176
11,GACTAGAA,-0.141
12,CCGATCAA,0.122
13,CGCCCCGA,0.105
14,GGTTTGCA,-0.0893
15,TACGTGGA,0.195
16,AAGCAGAC,-0.1
17,CCCCGACA,0.00234
18,CCGGCAGG,-0.147
19,CATAGCAG,-0.141
20,AACTAAGT,-0.152
21,ATCGAAAT,0.0372
22,CTTTGGTA,-0.18
23,CGTTTATC,0.0183
24,CGCTCAAA,-0.0913
25,GTTCGAGA,-0.162

row,Sequence,binding signal [E-score]
1,AAACCACT,0.00495
2,AATGAAGG,-0.138
3,ACATGATG,-0.024
4,ATGGGTTA,0.124
5,CAGCGCCC,-0.189
6,CCGGACGC,-0.182
7,CCAAATCG,-0.0505
8,CCCCTCCC,0.0159
9,AGTGTTAC,-0.138
10,CCCAGTGC,0.128
11,AGCCAAGA,-0.119
12,GGCGTTAA,-0.0898
13,AGCCCCCT,-0.121
14,GTCTCCCA,0.0479
15,GAGATCAC,0.368
16,CGGCGTGC,-0.137
17,AACGCTAG,-0.164
18,CATGAATA,-0.0164
19,TCCCGCGA,0.177
20,CATACGCC,0.11
21,ATCGGCAG,0.0557
22,ACGTCGCC,-0.21
23,GGTCAGGA,0.0405
24,CCCTACGC,0.0368
25,AATAATAT,0.228

row,Sequence,binding signal [E-score]
1,ACAGACGC,-0.0184
2,ACGGAGTG,-0.101
3,CATGTAGA,0.0538
4,GCATCTTA,0.112
5,GGCTCCCC,-0.116
6,GAGGAGAA,-0.15
7,CATGGCGC,-0.0882
8,CCTGCGTC,-0.0548
9,GTCTGGGA,-0.134
10,AGCGGACT,-0.0737
11,GAGTCGGC,-0.164
12,CTGCCGCA,-0.236
13,CGGGTCTA,0.222
14,CCAGAAAA,-0.162
15,CTAGTGGA,0.0328
16,CTTCAGCC,-0.208
17,CCATAAAA,-0.249
18,GCGAGAAA,-0.0399
19,GAAAGAGC,-0.291
20,GAAAGCTA,-0.135
21,GGATCTAA,0.285
22,CTAGCCTA,-0.101
23,ATTTATGC,-0.211
24,AGTGCCGG,-0.246
25,ACAGGGGC,-0.0302

row,Sequence,binding signal [E-score]
1,CCGGTCGC,-0.127
2,TGCCACAA,-0.116
3,AAATAGAA,-0.101
4,CCAAGCAG,-0.0514
5,ATCGTTTC,0.0417
6,CTCTGCAC,-0.117
7,GTTAACAA,-0.199
8,AGCGGCCC,-0.00783
9,ACTGCATG,-0.116
10,CAAAACTG,-0.136
11,CTATTATC,0.189
12,CCAACAGG,-0.202
13,AGCCAAAG,-0.0013
14,CTGTCCGC,-0.122
15,CCCGAAGA,0.0118
16,AAAATGGG,-0.351
17,ATGCAACG,-0.0952
18,GGCAGTTA,-0.138
19,GTGTGAAC,-0.103
20,ATGACTGG,-0.244
21,GCCCTTAA,-0.0831
22,GTGAGTTA,-0.165
23,TATAAGCA,0.0532
24,AATTATCT,0.077
25,ATAGAGAA,0.0744

row,Sequence,binding signal [E-score]
1,CAAGGGCA,-0.186
2,TAAGGTAA,0.0235
3,CCGTCGCG,0.045
4,CTTAAAAG,-0.185
5,TGACTCAA,-0.258
6,AGTGAAAT,-0.146
7,ATAGAGTA,0.115
8,CGGGGCTC,0.118
9,AGATGCAG,-0.058
10,GAACATAA,-0.128
11,AAAAAGCC,-0.314
12,GCTTAAAA,-0.155
13,ACCTGGCC,-0.0954
14,CCTTAGCC,0.076
15,ATTACTTA,0.00012
16,ATCGTTGA,0.153
17,CGTAACTA,-0.131
18,ATAGACGA,-0.0258
19,ACCCCCGG,0.204
20,CATTGGAC,-0.187
21,CTGCTTCC,-0.22
22,AATAAGTC,-0.295
23,CAAGGGTG,-0.0445
24,CTCACCAG,0.114
25,ACGTCTCG,0.0654

row,Sequence,binding signal [E-score]
1,CCTAGCGC,-0.225
2,AGGGTCCG,-0.135
3,CCCAGCCA,-0.016
4,CCATCGAG,0.0901
5,CGACGTAC,-0.178
6,AATGCCAG,-0.238
7,ACTGCGCC,-0.162
8,CCGGACAG,-0.129
9,AGGCGTCA,-0.155
10,ACTGCGAA,-0.369
11,AAACAATT,-0.235
12,CTGGATAC,0.387
13,GACGGAGA,0.041
14,ACTTACGG,-0.102
15,ATGTTACC,-0.0599
16,TTCGGAAA,-0.327
17,ATCCACTG,0.152
18,ACGGATAG,0.344
19,CGCGTTGA,-0.228
20,CCCGTCCA,-0.0528
21,TGCACGCA,-0.22
22,GACATAAA,-0.158
23,CCATATCG,0.454
24,GTTTTCTA,-0.122
25,ACATGTAA,-0.0393

row,Sequence,binding signal [E-score]
1,ATACGATA,0.419
2,GGAGCAAA,-0.258
3,ACTGTACG,-0.205
4,CACGTCGA,-0.0592
5,ACTAGAAG,0.00466
6,CCTTAGAA,-0.033
7,ACAGGCCG,-0.118
8,AGGTCCTA,-0.0891
9,CGTCACTA,0.0459
10,CTATCGGA,0.289
11,AACGTGGT,0.000195
12,GGAAGCCA,-0.0636
13,AGGGGAAG,0.0743
14,AAAGTATA,0.173
15,CAGCTAAG,-0.196
16,TGCAACAA,-0.0996
17,CCCTTGTA,0.0338
18,CAATTATA,-0.0613
19,ACCAAAGG,-0.00859
20,CTGCCTCC,-0.173
21,ACGAGTAG,0.0478
22,AAATGGCT,-0.138
23,CTGGGTGA,0.0389
24,CGGACCAC,0.121
25,CGTACTAG,-0.118

row,Sequence,binding signal [E-score]
1,ATCCTCGG,0.23
2,ATACATGA,0.231
3,GCCTCCGA,-0.116
4,ACCTAGGA,0.0208
5,ATCACGCC,0.26
6,AGACCGTG,-0.243
7,GTAGGAGA,0.00658
8,CTGCGGGC,-0.131
9,AGAAAATA,0.0317
10,GGAGCTCA,0.08
11,AACGTGAC,-0.316
12,CTGTCGAC,-0.148
13,TGAATCCA,-0.0503
14,CCGGTAGC,-0.0821
15,GTAATTTA,-0.181
16,AATACTCT,0.257
17,CTCTGAAG,-0.21
18,AGTTATAC,0.129
19,AGCATCTC,0.0255
20,ATAAGAGA,0.00476
21,AAACCGCC,-0.0558
22,ACAGGTGA,0.082
23,GCGTCCAA,-0.193
24,GAGGGATC,0.397
25,AAAAGAAC,-0.167

row,Sequence,binding signal [E-score]
1,CTGTCCCC,-0.115
2,GTCGTGCA,-0.078
3,CGTATGTC,0.0105
4,CAGCAGAG,-0.0676
5,CCTTGTAG,0.0203
6,ACTGGCAA,-0.195
7,GGCTACAA,-0.0318
8,ACCTCAAG,-0.13
9,AGCCTAGA,-0.131
10,ATTCCGCC,-0.108
11,GTCAATGA,0.026
12,GCATACAC,0.155
13,ACAGTGCT,-0.0238
14,AATCGTGA,-0.0818
15,TATACCCA,0.401
16,TAACTGTA,-0.0825
17,CAGTTAAC,-0.113
18,AGAACGCT,-0.162
19,GTCATCAA,-0.0944
20,CACACGGG,0.148
21,GCGGCCAC,-0.244
22,CGTTAAAC,-0.175
23,CCCACGAG,0.0722
24,ATCGTACA,0.142
25,ATGCAAAT,-0.069

row,Sequence,binding signal [E-score]
1,GGTCTATA,0.063
2,ACTAAACC,0.114
3,CTCTCTTC,-0.0476
4,ACCGAAAC,0.0577
5,CCCCTTAG,-0.0404
6,AGCGCTGG,-0.264
7,GAGCCCAC,0.135
8,TCGCTACA,-0.254
9,TACTGCTA,0.189
10,CATGATAG,0.274
11,ACCAGCCA,-0.0605
12,CTACACAA,-0.197
13,AAGGCCGG,-0.104
14,CTACAACA,-0.0886
15,GAGCGGGC,-0.169
16,AGTCCAAG,-0.133
17,ATCTGATC,0.419
18,TGAGGGAA,-0.193
19,CTTTCGTA,-0.229
20,AGGAAAAC,-0.0959
21,GCCCGCGA,-0.0488
22,ATAATGTG,-0.0933
23,AAGAGCGC,-0.191
24,AAGCGGGT,-0.00587
25,AAGGGATC,0.377

row,Sequence,binding signal [E-score]
1,GAGTATCC,0.42
2,GTGTACAA,0.0474
3,GGTGCCTA,-0.19
4,CGCTTCAA,-0.182
5,GACCAACC,-0.0541
6,CACATGCG,0.0348
7,CAGGCGAC,-0.0942
8,TAGATGAA,0.00359
9,CGATACAC,0.418
10,ACATAGTC,-0.206
11,TCATAGAA,-0.0333
12,AATGCATA,0.0553
13,TGCCACCA,-0.0962
14,ATCTTGCG,0.0553
15,GCCGACGC,-0.0249
16,ACAGGTTA,-0.16
17,CTCCTAGC,-0.0797
18,ATTTTAAG,-0.135
19,AACATGTC,-0.102
20,ATATCAAG,0.423
21,GCGAACAC,0.0862
22,ACAAGTAA,-0.2
23,TCAAGACA,-0.172
24,CACGGGGG,0.105
25,ATCGCCGC,0.0347

row,Sequence,binding signal [E-score]
1,GACCATAC,0.0313
2,GAAATGCC,-0.155
3,ACGAATGC,-0.16
4,ATCACTTC,0.3
5,TGCCGCAA,0.0355
6,ACAACTGA,-0.0481
7,AGTTACGC,-0.293
8,AAGAACGT,-0.191
9,CAACAAAA,-0.0775
10,AGGCAAAC,-0.167
11,AAGCCTCC,-0.289
12,GTGAAGTA,-0.0788
13,CAGCACTG,-0.214
14,GCGCATGA,-0.0245
15,AGCTTTCA,-0.143
16,ACTCATCC,0.0911
17,AGGACTGC,-0.301
18,CGGTACTA,-0.03
19,CACTATGA,-0.0678
20,GGACGACA,-0.0703
21,TGAGACCA,0.169
22,ACCACCGC,-0.0428
23,AAACAATA,0.0376
24,GTCTCGGA,0.154
25,ATAAACGG,0.0776

row,Sequence,binding signal [E-score]
1,AACTCCCC,-0.0534
2,CTGTAATA,0.0701
3,CATTAAGG,0.00831
4,ATCCATGG,0.167
5,TATTCACA,0.166
6,GCAAACGA,0.0108
7,CTTTAATC,0.0475
8,CGCGCTGA,0.0317
9,AATAACAT,0.00793
10,AATATCGG,0.312
11,CCTGGAAG,-0.116
12,GGAGTATA,0.319
13,AGGCAAAG,-0.229
14,GTGGAGGA,0.119
15,GCGTACTA,-0.116
16,CGCCACTA,-0.0453
17,ATGGTCCA,-0.106
18,CAACTATA,-0.00948
19,CCCTTTTA,-0.125
20,CGATTCCA,-0.00511
21,CTCGTCCC,-0.171
22,ACTTGCGG,-0.134
23,ACGACAGA,0.00908
24,AATGCGCA,0.0354
25,GACGTGGA,-0.122

row,Sequence,binding signal [E-score]
1,AAATTAGC,-0.157
2,ATGATCTC,0.327
3,TGTCTAAA,0.107
4,TATGGCAA,-0.143
5,CAAAGCGC,-0.192
6,AAGGGACT,-0.234
7,ACTCTAGA,0.203
8,CCTCCCCG,0.0183
9,ATTCTATG,-0.0456
10,AGGACTAA,-0.0521
11,GATATGGC,0.418
12,CGCTACCC,0.0566
13,ACCTCATC,0.0359
14,GACGCGAA,-0.0761
15,AGAGCAAT,0.0285
16,AATCTGAG,0.112
17,CGTTACAA,-0.144
18,ACGTAGGC,-0.147
19,GAGGGGTA,0.257
